Source: PubChem BioAssay AID488896 (Broad Institute, 2010)
The campaign covered roughly 320,000 compounds. About 3,100 (0.97%) were called active. The shares of active, inactive and inconclusive entries below differ from those in the screen.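 The calls were made as follows: active = mean replicate inhibition of at least 70% and a set share of replicates each scoring 70 or more; inconclusive = meets just one of the two criteria; inactive = fails both criteria.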

The compounds below were run against Scavenger receptor class B member 1 (Mus musculus) (UniProt Q61009) (assay: inhibitors of SR-BI mediated HDL lipid uptake, primary screen, ldlA[mSR-BI] cells, fluorescence, single point (AID 488896;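 also: 0% = median of neutral control wells and 100% = median of positive control wells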)). Conditions: ldlA[mSR-BI] CHO cells, DiI-HDL uptake fluorescence, 3 h; at 12.5 µM; stronger effect = higher value.
Chain of UniProt Q61009 (Q61009 whole entry, looked up): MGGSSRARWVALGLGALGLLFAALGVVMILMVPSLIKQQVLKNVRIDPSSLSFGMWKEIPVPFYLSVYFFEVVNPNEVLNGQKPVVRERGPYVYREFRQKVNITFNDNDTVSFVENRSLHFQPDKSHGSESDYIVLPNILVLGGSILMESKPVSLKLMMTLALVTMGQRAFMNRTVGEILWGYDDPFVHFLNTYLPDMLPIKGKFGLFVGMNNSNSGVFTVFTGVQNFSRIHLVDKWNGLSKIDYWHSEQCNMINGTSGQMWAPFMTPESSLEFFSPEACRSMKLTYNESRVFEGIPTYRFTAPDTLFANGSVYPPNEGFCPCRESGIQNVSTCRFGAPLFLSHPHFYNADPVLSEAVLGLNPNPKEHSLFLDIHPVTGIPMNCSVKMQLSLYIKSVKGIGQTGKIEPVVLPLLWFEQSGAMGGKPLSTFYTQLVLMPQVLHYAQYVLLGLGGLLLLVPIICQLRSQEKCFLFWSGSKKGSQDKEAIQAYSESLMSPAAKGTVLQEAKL

Structure (SMILES)	inhibition
O=C(Nc1ccc(N2CCCC2)cc1)c1ccc(Cl)cc1Cl	inconclusive: 76.5%
CCOc1ccc2nc(SC3CC(=O)N(c4cccc(OC)c4)C3=O)sc2c1 (stereo not given)	inconclusive: 70.8%
CCOc1ccccc1CNC(=O)c1cc2oc3ccccc3c2n1CC	inconclusive: 71.3%
CCOc1ccc2nc(N3CCC(C(=O)N4CCN(C5CCCCC5)CC4)CC3)sc2c1	inconclusive: 71.2%
COc1ccc(/C=N/Nc2nc(Nc3ccccc3)nc(N3CCCC3)n2)cc1[N+](=O)[O-]	inconclusive: 70.5%
Cc1nc(NC(=O)c2ccco2)sc1-c1csc(Nc2ccc(Cl)cc2)n1	active: 84.5%
Cn1nc(C(=O)Nc2nc(-c3ccccn3)cs2)c2ccccc2c1=O	inconclusive: 71.7%
O=C(Nc1nc(-c2cc(Cl)sc2Cl)cs1)c1cccs1	inconclusive: 71.5%
CCCc1cc(N2CCOCC2)n2ncc(-c3ccccc3)c2n1	inconclusive: 71.4%
NC(=O)c1sc2nc(-c3ccco3)ccc2c1N	inactive: 13.8%
CCc1sc(C(=O)Nc2ccc3c(c2)OCCO3)cc1Br	inconclusive: 71.1%
Cc1cc(C)c(NC(=O)c2ccccc2CCc2ccccc2)c(C)c1	inconclusive: 72.5%
COc1cc(NC(=O)c2ccco2)c(OC)cc1NC(=O)Nc1ccc(Cl)cc1	active: 100%
Cc1ccc(S(=O)(=O)N2CCOCC2)cc1C(=O)OCC(=O)N1CCc2ccccc2C1	active: 76.2%
Cc1ccc(C(=O)Nc2ccc(N3CCN(C(=O)c4cccs4)CC3)cc2)c(Cl)c1	inconclusive: 71.3%
c1ccc(-c2nnc(-c3ccccc3)c(-c3c[nH]c4ccccc34)n2)cc1	active: 76.4%
COc1ccc(-c2cc(-c3cccs3)nc3sc(C#N)c(N)c23)cc1	inconclusive: 74.5%
O=C(Nc1ccc(C(=O)N2CCCCC2)cc1)c1cccc([N+](=O)[O-])c1	inconclusive: 70.8%
Cc1ccc(NC(=O)CN2C(=O)N/C(=C/c3ccc(C)s3)C2=O)cc1	inactive: -7.97%
COc1ccc(NC(=O)c2c(Nc3ccccc3)sc(C(=O)c3ccc(F)cc3)c2N)cc1	active: 122%
Cc1nnc(NC(=O)CSc2nnc(-c3ccccc3)n2C)s1	inactive: -0.517%
C[C@]12C(=O)N(c3ccc(Cl)cc3)C(=O)N1[C@@H]1c3ccccc3OC[C@@H]1[C@H]2c1ccccc1	inconclusive: 72.2%

Structure (SMILES)	inhibition
CCOc1ccc(CCNC(=O)c2cc3sccc3n2CC)cc1OCC	inconclusive: 70.8%
CCCOc1cccc(-c2cc(C(=O)NN)c3ccccc3n2)c1	active: 84.4%
COC(=O)c1cnc(Oc2ccc(NC(=O)NC(=O)c3c(OC)cccc3OC)cc2)cc1C(F)(F)F	inconclusive: 70.6%
O=C(Nc1cc(Sc2ccccn2)cc([N+](=O)[O-])c1)c1ccc(Cl)cc1	inconclusive: 77.3%
COc1ccc(C(=O)c2c(C)c(CCC#N)n3ccccc23)c(OC)c1	inconclusive: 70.4%
O=C(NNC(=O)c1ccc(NC(=O)c2ccccc2)cc1)c1ccc(F)cc1	inactive: 12%
COc1cc(OC)cc(C(=O)Nc2nc(-c3ccccc3)c(-c3ccccc3)o2)c1	inconclusive: 73.6%
COc1ccc(C(=O)COC(=O)c2cc([N+](=O)[O-])ccc2N2CCOCC2)c(OC)c1	inconclusive: 70.5%
CC1CCN(Cc2c(C(=O)N/N=C/c3cc(Br)ccc3O)nnn2-c2nonc2N)CC1	active: 103%
O=C(CCSc1nc(-c2ccc3c(c2)OCO3)cc(C(F)(F)F)n1)NCc1ccccc1	inconclusive: 75.2%
O=C(Nc1nc2c(s1)CCc1ccccc1-2)c1cccs1	inconclusive: 70.3%
S=C(Nc1ccc(Oc2ccccc2)cc1)NC1CCCCC1	inactive: -9.98%
COC(=O)c1c(NC(NC(=O)C(C)C)C(Cl)(Cl)Cl)sc2c1CCC2 (stereo not given)	inactive: 46%
CC(C)c1ccc(NC(=O)Nc2cc3sccc3n2C)cc1	inactive: 35.8%
CC(C)Oc1ccc(C(=O)N2CCCc3ccccc32)cc1	inconclusive: 70.8%
C=CCNC(=S)N/N=C/c1ccc(-c2ccc(OC)cc2)o1	inconclusive: 72.2%
O=C(O)c1cccc(-c2ccc(/C=c3/sc4nc5ccccc5n4c3=O)o2)c1	inactive: 0.909%
COc1ccc(N2CCN(C(=O)Cn3nnc(-c4ccccc4N)n3)CC2)cc1	active: 82.6%
CC(C)c1nc(C(=O)N2CCCC(N3CCN(c4cccc(Cl)c4)CC3)C2)cs1 (stereo not given)	inconclusive: 73%
COC(=O)c1[nH]c2cc(C)ccc2c1NC(=O)CN1CCCc2ccccc21	inconclusive: 72.3%
CCOC(=O)C1=C(N)n2c(s/c(=C\c3cccs3)c2=O)=C(C(=O)OCC)C1c1cccs1 (stereo not given)	inactive: -18.4%
O=C(Cn1cnc2c(oc3ccccc32)c1=O)NCCc1ccccc1	inactive: 14%

Structure (SMILES)	inhibition
CCn1c(COc2c(C)cccc2C)nnc1SCC(=O)N1CCN(c2ccccc2)CC1	active: 79%
O=C(O)c1ccccc1NS(=O)(=O)c1ccc(NNC(=S)Nc2ccc(OC(F)F)cc2)c([N+](=O)[O-])c1	inconclusive: 71%
CCOc1ccc(C(=O)NCC(=O)N2CC=C(c3ccccc3)CC2)cc1OCC	inconclusive: 72.7%
COc1ccc(CNC(=O)COC(=O)c2n[nH]c3ccccc23)cc1	inactive: -22.9%
COc1ccc(OCC(=O)Nc2cc(OC)ccc2N2CCCCC2)cc1	inconclusive: 70.7%
COc1cc(NC(=O)c2ccc3c(c2)OCO3)ccc1NC(=O)c1ccco1	inconclusive: 71.3%
O=C(NNC(=O)c1cc2ccccc2cc1O)c1cccs1	active: 115%
COc1ccc(C(=O)OCC(=O)NCc2ccco2)cc1S(=O)(=O)N1CCN(c2cccc(Cl)c2)CC1	inconclusive: 72.3%
O=CNc1c(Cl)cc2c(c1Cl)Cc1cc([N+](=O)[O-])ccc1-2	inactive: 62.2%
CCOC(=O)Nc1cccc(NC(=O)c2cc(OC)cc(OC)c2)c1	active: 74.4%
O=C(CSc1nc(Nc2ccccc2)nc(N2CCOCC2)n1)Nc1cc(Cl)ccc1O	inconclusive: 70.4%
COc1ccc(-c2cc(C(=O)Nc3cc(C)n(Cc4ccc(Cl)cc4)n3)no2)cc1OC	inconclusive: 70.4%
CCCc1c(C(=O)N/N=C/c2c(OC)ccc3ccccc23)nnn1-c1nonc1N	inconclusive: 73.9%
Cc1nn(-c2ccc(Cl)cc2)c(Cl)c1/C=N/NC(=O)c1ccc(NS(=O)(=O)c2cccs2)cc1	inconclusive: 80.5%
CCOC(=O)c1c(NC(=O)Nc2ccccc2)sc(C)c1C	active: 85.5%
CCSCC1COC(c2cccn2Cc2ccc(C)cc2)=N1 (stereo not given)	inconclusive: 70.1%
CCn1c(-c2ccc([N+](=O)[O-])cc2)n[nH]c1=S	inactive: 6.12%
COc1ccccc1-c1cc(C(=O)N/N=C/c2ccc(C)s2)c2ccccc2n1	active: 77.1%
O=C(N/N=C/c1cc(Br)cc(Br)c1O)c1cccc(N2CCCC2=O)c1	active: 132%
CCOc1ccc(/C=C/C(=O)N(CC)CC(=O)Nc2ccc3c(c2)OCCO3)cc1OC	inconclusive: 71%
COc1ccc([N+](=O)[O-])cc1NC(=O)C(C)NNC(=O)c1cccc([N+](=O)[O-])c1 (stereo not given)	inconclusive: 71.9%
O=C(CN1C(=O)CCC1=O)Nc1nc(-c2ccc(Cl)s2)cs1	inactive: -5.07%

Structure (SMILES)	inhibition
COc1cc2c(cc1NC(=O)C(C)OC(=O)c1ccc(S(=O)(=O)Nc3ccccc3Cl)cc1)oc1ccccc12 (stereo not given)	inconclusive: 76.7%
CCOC(=O)c1ccc(-c2cc(C)no2)[nH]1	inactive: 2.75%
CCn1c(=NC(=O)c2ccc(N3C(=O)CCC3=O)cc2)sc2c(OC)ccc(OC)c21	inconclusive: 70.3%
COc1ccc(-c2nc(C#N)c(NCc3ccc(F)cc3)o2)cc1OC	active: 73.7%
CCn1nnc(NC(=O)c2ccc(-c3ccc(Cl)cc3)o2)n1	inactive: -22.6%
O=C1Cc2c(-c3ccccc3)cc(-c3cccc(Cl)c3)nc2-c2ccccc2N1	inconclusive: 70.1%
C[C@]12c3[nH]c4cc(-c5ccco5)ccc4c3CCN1C(=O)[C@@H](CC(=O)NCCCn1ccnc1)C[C@@H]2C(=O)N1CCOCC1	inactive: 4.73%
COc1cc(C(=O)NC(=S)Nc2ccccc2N2CCCC2)cc(OC)c1OC	inconclusive: 70.8%
CC(C)(CNC(=O)C1CCN(S(=O)(=O)c2cc([N+](=O)[O-])ccc2Cl)CC1)N1CCOCC1	inactive: -0.793%
COc1cccc(OC)c1C(=O)NC(=S)Nc1ccc2oc(-c3ccncc3)nc2c1	inconclusive: 74.2%
Cc1cc(-c2ccccc2)nc(SCC(=O)c2cccc([N+](=O)[O-])c2)n1	inconclusive: 71.2%
Cc1nc(NCCC(C)C)c2nnn(Cc3ccccc3)c2n1	inactive: 26.3%
CCCc1[nH]n(-c2ccc([N+](=O)[O-])cc2)c(=O)c1C=NCCc1ccc(OC)c(OC)c1	inconclusive: 72.3%
CCOC(=O)C1CCCN(Cc2nc(N)nc(Nc3ccc(Cl)cc3)n2)C1 (stereo not given)	inactive: 8.24%
CCOC(=O)C1=C(C)NC(=O)NC1c1ccc(N2CCC(c3ccccc3)=N2)cc1 (stereo not given)	inconclusive: 70.9%
CCNc1nc(SC(C)C(=O)Nc2ccccc2)nc(N(C)C)n1 (stereo not given)	inactive: 8.14%
O=[N+]([O-])/C(C(=C(Cl)Cl)N1CCOCC1)=C1\NCCO1	inactive: -7.71%
COc1cc(-c2cc(C(=O)Nc3ccncc3)c3ccccc3n2)cc(OC)c1OC	inconclusive: 70.9%
COc1cccc(/C=N\NC(=O)c2ccc(Cn3cc(Br)c([N+](=O)[O-])n3)o2)c1O	active: 101%
